Laboratory results published in PMC5075699.

Experiments:
[1] = tested on: ATF4; assay: ATF4 western blot, 293T cell lysate controls (ER stress induction); settings: 293T cell lysate; cortex ATF4 blot 1
[2] = tested on: hAPP-J20 (J20) mice; assay: Morris water maze #2, hAPP-J20 mice; settings: 2.5 mpk in 50% DMSO/50% PEG; vs vehicle
[3] = ref Sidrauski et al., 2013; Halliday et al., 2015; cited from earlier work

## C/C=C(/C)C(=O)O[C@H]1C(C)=C2[C@H]([C@@H]1OC(=O)CCCCCCC)[C@@](C)(OC(C)=O)C[C@H](OC(=O)CCC)[C@@]1(O)[C@H]2OC(=O)[C@@]1(C)O [Thapsigargin, thapsigargin]
[1]
  ATF4 Signal (channel 800): 1.08E+03

## tunicamycin
[1]
  ATF4:GAPDH signal (normalized ATF4): 3.91E-01
  ATF4 Signal (channel 800): 1.25E+03

## O=C(COc1ccc(Cl)cc1)NC1CCC(NC(=O)COc2ccc(Cl)cc2)CC1 (centres unmarked) [ISRIB]
[2]
  MWM training latency J20 Trial*ISRIB (linear mixed effects regression model): 4.6 sec/day
[3]
  blood-brain-barrier penetration: readily crosses the blood–brain-barrier
